According to PubChem BioAssay AID686979 (National Center for Advancing Translational Sciences (NCATS), 2013):
“And” between values parts separate entries of the source, which are not always exact repeats. Equal entries are not always repeated. The campaign covered roughly 420,000 compounds. About 50,000 (12%) were called active. The inconclusive results got no clear call from the source; some entries with a clear call stand among them for comparison. Calls come from the whole dose curve; as a rule, active = well fitted inhibition curve with a large enough effect; inconclusive = small, poorly fitted or top-dose-only effect; inactive = flat fitted curve, though single readings scatter. Where the call is inconclusive, the potency comes from a doubtful curve fit.

Assay: qHTS for Inhibitors of human tyrosyl-DNA phosphodiesterase 1 (TDP1): qHTS in cells in presence of CPT; note: nearly all actives have a fitted effect of over 55% in size
Settings: chicken DT40 Tdp1-/-;hTDP1 cells + 20 nM CPT, ATP luminescence, 48 h; activity change, negative = growth inhibition: at 46.2 µM (top of the series) unless noted
Method in brief: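 Cell growth measured by CellTiter-Glo luminescence after a minimum 48 h, 37 C compound exposure with 20 nM CPT in Tdp1-knockout DT40 cells stably expressing hTDP1, seeded 400/well; qHTS titration format.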
% is set by controls: 0 for no effect and ±100 for the full control effect; potency is the fitted concentration of half-maximal effect; tags give direction and shape of the fitted curve.

**Q.** For `CCOC(=O)c1ccc(N2C(=O)c3cccc4c(C(=O)O)ccc(c34)C2=O)cc1`, which “activity change, negative = growth inhibition” value is on record?
**A.** inactive: 2.25%

**Q.** Which “activity change, negative = growth inhibition” value does the source give for `N#CCCn1c(=O)cnc2cnc(Oc3ccccc3)nc21` here?
**A.** inactive: -6.35%

**Q.** For `COCCNC(=S)N(c1ccccc1)C(C)C`, which “activity change, negative = growth inhibition” value is on record?
**A.** inactive: 1.11%

**Q.** For `C=CCCN(Cc1ccccc1)S(=O)(=O)c1cc(Br)ccc1Br`, which Potency is on record?
**A.** inconclusive: 22.4 µM [inhibitor, single point] and inconclusive: 23.1 µM [inhibitor, single point]

**Q.** Which Potency does the source give for `COc1ccccc1NC(=O)CCNS(=O)(=O)c1ccc2[nH]c(=O)oc2c1` here?
**A.** active: 23.1 µM

**Q.** For `Cc1noc(C)c1COc1ccc(C(=O)O)cc1`, which “activity change, negative = growth inhibition” value is on record?
**A.** inactive: -9.68%

**Q.** Which Potency does the source give for `COc1ccccc1N(C(=O)c1snc(C(N)=O)c1N)C(C(=O)NC1CCCCC1)c1cccc(OC)c1OC` (centres undefined) here?
**A.** inconclusive: 23.1 µM [inhibitor, single point]

**Q.** With `CCN(CC)c1ccc(C(=O)N2CCN(Cc3ccccc3)CC2)cc1` as the compound, how does the Potency read?
**A.** inconclusive: 25.9 µM [inhibitor, single point]

**Q.** With `C=CCOc1c(Br)cc(C2NC(=O)NC(C)=C2C(C)=O)cc1OCC` (centres undefined) as the compound, how does the “activity change, negative = growth inhibition” value read?
**A.** inactive: -12.5%

**Q.** With `CC1CC(C)CN(C(=O)Cn2ncc3c([nH]c4ccccc43)c2=O)C1` (centres undefined) as the compound, how does the Potency read?
**A.** inconclusive: 20.6 µM [inhibitor, single point]

**Q.** For `Cc1cc(Br)cc(C)c1NC(=O)c1ccccc1[N+](=O)[O-]`, which “activity change, negative = growth inhibition” value is on record?
**A.** inactive: 9.85%

**Q.** Which “activity change, negative = growth inhibition” value does the source give for `Cc1ccc(N(CC(=O)NC(C)(C)C)C(=O)CS(=O)CC(=O)Nc2ccc3c(c2)OCO3)cc1` (centres undefined) here?
**A.** inactive: -1.63%

**Q.** For `COc1ccccc1OCC(O)CN1C(=O)NC(C)(C)C1=O` (centres undefined), which Potency is on record?
**A.** inconclusive: 29.1 µM [inhibitor, single point]

**Q.** For `CC(=O)Nc1ccc(NC(=O)C(C)Oc2ccccc2C(=O)NCc2ccccc2)cc1` (centres undefined), which Potency is on record?
**A.** inconclusive: 13 µM [inhibitor, single point]

**Q.** With `Cc1nc(Br)c(Br)c(C)c1Br` as the compound, how does the “activity change, negative = growth inhibition” value read?
**A.** inactive: 0.755%

**Q.** Which Potency does the source give for `CC1(C)COC(/C=C/c2ccc([N+](=O)[O-])cc2)=N1` here?
**A.** inconclusive: 29.1 µM [inhibitor, single point]

**Q.** With `Cn1c(SCC(=O)Nc2ccc3[nH]c(=O)[nH]c3c2)nnc1-c1ccc(F)cc1` as the compound, how does the “activity change, negative = growth inhibition” value read?
**A.** inactive: -7.19%

**Q.** For `Cc1ccccc1-n1c(SC(C)C(=O)N2CCN(C)CC2)nc2ccccc2c1=O` (centres undefined), which “activity change, negative = growth inhibition” value is on record?
**A.** inactive: -21.9%

**Q.** For `CC(C)c1ccc(CCNC(=O)c2cccc(S(=O)(=O)N3CCN(C)CC3)c2)cc1`, which Potency is on record?
**A.** inconclusive: 29.1 µM [inhibitor, single point]

**Q.** Which Potency does the source give for `Cc1ccc(-c2ccnc(-c3ccc(O)cc3)n2)cc1` here?
**A.** inconclusive: 7.31 µM [inhibitor, partial curve]

**Q.** With `Cc1ccc(C(=O)Nc2ccc(C(=O)OCc3cc(=O)n4nc(C5CC5)sc4n3)cc2)cc1` as the compound, how does the “activity change, negative = growth inhibition” value read?
**A.** inactive: -13.2%

**Q.** For `COc1ccc(S(=O)(=O)N2CCCCCC2)cc1C(=O)NCCOc1ccc(C)cc1`, which Potency is on record?
**A.** inconclusive: 25.9 µM [inhibitor, single point]

**Q.** With `COC(=O)CSc1nc(N2CCOCC2)c2c(c1C#N)CC(C)(C)OC2` as the compound, how does the “activity change, negative = growth inhibition” value read?
**A.** inactive: -0.327%

**Q.** Which “activity change, negative = growth inhibition” value does the source give for `CCOC(=O)c1ccc(NC(=O)CSc2nc(=O)n(CCN3CCOCC3)c3c2CCC3)cc1` here?
**A.** inactive: -15.6%

**Q.** Which “activity change, negative = growth inhibition” value does the source give for `CCc1ccccc1NS(=O)(=O)c1c(C(=O)N2CCCCCC2)c(C)n(C)c1C` here?
**A.** inactive: -25.5%

**Q.** Which activity change, negative = growth inhibition does the source give for `O=C(CSc1nc2ccc([N+](=O)[O-])cc2[nH]1)NC1CCCCC1` here?
**A.** inconclusive: -38.1% [inhibitor]

**Q.** For `Cc1cc(C(=O)Nc2ccccc2)oc1C`, which activity change, negative = growth inhibition is on record?
**A.** inconclusive: -33.4% [inhibitor]

**Q.** Which “activity change, negative = growth inhibition” value does the source give for `COc1cc(OC)c(NC(=S)Nc2cccc(C)c2)cc1Cl` here?
**A.** inactive: -26.5%

**Q.** For `CCC(C)Nc1nc(Cl)nc(NCCOc2ccccc2)n1` (centres undefined), which “activity change, negative = growth inhibition” value is on record?
**A.** inactive: -12.6%

**Q.** Which Potency does the source give for `CCOC(=O)/C(C#N)=C/c1c(OCC)n(CC)c2ccccc12` here?
**A.** inconclusive: 29.1 µM [inhibitor, single point]

**Q.** Which “activity change, negative = growth inhibition” value does the source give for `CNC(=O)c1cc(S(=O)(=O)Nc2ccc3c(c2)OCO3)ccc1C` here?
**A.** inactive: 4.32%

**Q.** For `O=C(c1cc(-c2ccccn2)nc2c(Cl)cccc12)N1CCN(S(=O)(=O)c2ccccc2)CC1`, which Potency is on record?
**A.** inconclusive: 29.1 µM [inhibitor, single point]

**Q.** Which “activity change, negative = growth inhibition” value does the source give for `CCC(=O)Nc1ccc2c(c1)ncn2CCc1ccccc1` here?
**A.** inactive: -10.8%

**Q.** Which Potency does the source give for `CC(=O)Nc1ccc(S(=O)(=O)NCCC(=O)OCc2ccc([N+](=O)[O-])cc2)cc1` here?
**A.** active: 13 µM

**Q.** For `CCn1ncc(C2=NOC(C(=O)Nc3cnn(C45CC6CC(CC(C6)C4)C5)c3)C2)c1C` (centres undefined), which Potency is on record?
**A.** inconclusive: 29.1 µM [inhibitor, single point]

**Q.** Which Potency does the source give for `Cc1ccnc(NC(=O)CN(C)S(=O)(=O)c2cccc3nsnc23)c1` here?
**A.** inconclusive: 8.2 µM [inhibitor, partial curve]

**Q.** With `CN(Cc1ccccc1)C(=O)c1[nH]cnc1C(=O)N[C@@H](Cc1ccccc1)C(=O)OC(C)(C)C` as the compound, how does the Potency read?
**A.** inconclusive: 29.1 µM [inhibitor, single point]

**Q.** For `O=S(=O)(NCc1ccc2c(c1)OCO2)c1ccc(Cl)s1`, which “activity change, negative = growth inhibition” value is on record?
**A.** inactive: -12%

**Q.** With `Cc1ccc(N/N=C(\C#N)C(=O)c2ccsc2)cc1` as the compound, how does the Potency read?
**A.** inconclusive: 23.1 µM [inhibitor, single point]

**Q.** With `COc1ccc(NC(=O)C(=O)NCC(c2ccc3c(c2)OCO3)N2CCN(C)CC2)cc1` (centres undefined) as the compound, how does the Potency read?
**A.** inconclusive: 16.4 µM [inhibitor, single point]

**Q.** With `COc1ccc(C(=O)CSc2nnc(CN3CCCCC3)n2-c2ccc(F)cc2)cc1OC` as the compound, how does the “activity change, negative = growth inhibition” value read?
**A.** inactive: -14.8%

**Q.** For `O=C(O)C1=C[C@H](c2ccc(Br)cc2)C[C@H](OCCCCO)O1`, which “activity change, negative = growth inhibition” value is on record?
**A.** inactive: 15.4%

**Q.** With `Cc1cc(C)c2c(-n3cccc3)nn(CC#N)c2n1` as the compound, how does the “activity change, negative = growth inhibition” value read?
**A.** inactive: -4.6%

**Q.** For `O=C1N=C(O)CN1/N=C\c1ccc(-c2ccc([N+](=O)[O-])cc2)o1`, which Potency is on record?
**A.** inconclusive: 33.5 µM [inhibitor, single point]

**Q.** For `CCn1cc(C(=O)N2CCN(c3ccc(F)cc3)CC2)c(=O)c2cc(S(=O)(=O)N3CCOCC3)ccc21`, which “activity change, negative = growth inhibition” value is on record?
**A.** inactive: -2.94%

**Q.** With `COc1ccc(OC)c(CNC(=O)CCCc2cn(C)c3ccccc23)c1` as the compound, how does the Potency read?
**A.** inconclusive: 16.4 µM [inhibitor, single point]

**Q.** For `COc1ccc(NC(=O)C(=O)NCCC2CCCCN2S(=O)(=O)c2ccc(F)cc2)cc1` (centres undefined), which Potency is on record?
**A.** active: 20.6 µM

**Q.** For `COc1cc(/C=N/NC(=O)c2ccc(N)cc2)ccc1OC(=O)c1cccc(C)c1`, which “activity change, negative = growth inhibition” value is on record?
**A.** inactive: -0.176%

**Q.** With `CC(=O)Nc1cccc(NC(=O)CCn2c(=O)sc3ccccc32)c1` as the compound, how does the Potency read?
**A.** inconclusive: 18.4 µM [inhibitor, single point]
